From the GPR68 mutational scans of Howard et al. (2025)
Scores with a large standard error are left out. Two further conditions of the source, in which the scores hardly spread, are not listed. Read del as a deletion of the residues named and ins as an insertion between two positions. For some assays here: The data file names ogerin without a concentration.

B1: GPR68, Q15743 (parent)
chain: MGNITADNSSMSCTIDHTIHQTLAPVVYVTVLVVGFPANCLSLYFGYLQIKARNELGVYLCNLTVADLFYICSLPFWLQYVLQHDNWSHGDLSCQVCGILLYENIYISVGFLCCISVDRYLAVAHPFRFHQFRTLKAAVGVSVVIWAKELLTSIYFLMHEEVIEDENQHRVCFEHYPIQAWQRAINYYRFLVGFLFPICLLLASYQGILRAVRRSHGTQKSRKDQIQRLVLSTVVIFLACFLPYHVLLLVRSVWEASCDFAKGVFNAYHFSLLLTSFNCVADPVLYCFVSETTHRDLARLRGACLAFLTCSRTGRAREAYPLGAPEASGKSGAQGEEPELLTKLHPAFQTPNSPGSGGFPTGRLA

How the values were obtained:
[1] = variants of: B1; assay: cAMP reporter score (Enrich2 score, wild type = 0); higher = more signal; HEK293T, FACS bins
[2] = variants of: B1; assay: surface expression score (Enrich2 score, wild type = 0); higher = more signal; HEK293T, FACS bins

Row | Variant | cAMP reporter score ([1]; pH 5.5) | cAMP reporter score ([1]; pH 6) | cAMP reporter score ([1]; pH 6, modulator: ogerin) | cAMP reporter score ([1]; pH 6.5, modulator: ogerin) | surface expression score [2]
1 | V162_I163del | -0.491 | -1.28 | -1.17 | -0.862 | 0.916
2 | H169_R170insGSG | -0.933 | -1.04 | -1.51 | -1.54 | 0.786
3 | V171_C172insG | -0.902 | -1 | -1.65 | -0.837 | -0.249
4 | I163del | -1.22 | -0.64 | -0.916 | -1.06 | 1.62
5 | E164del | -0.444 | -1.29 | -0.776 | -1.2 | 0.857
6 | E164_D165insGS | -1.53 | -0.289 | -0.824 | -0.819 | 0.637
7 | N167I | 0.313 | 0.047 | -0.853 | -0.77 | 1.94
8 | N167F | -0.106 | -0.661 | -0.669 | -0.696 | 0.064
9 | N167T | 0.328 | -0.249 | -0.194 | -0.743 | 0.644
10 | N167H | 0.894 | 3.57 | 0.778 | 2.93 | 0.08
11 | N167G | -0.476 | -1.67 | -1.19 | -1.58 | -0.039
12 | N167L | -0.124 | -0.761 | 0.153 | -0.31 | 0.302
13 | N167Q | 0.169 | 1.12 | 0.642 | -0.59 | 1.22
14 | N167P | 0.083 | -1.21 | – | – | 1.1
15 | N167C | 0.428 | – | 0.412 | -0.141 | –
16 | N167K | 0.405 | -0.796 | 0.659 | -0.304 | 0.268
17 | N167E | -0.897 | 0.214 | -1.2 | -0.305 | -0.53
18 | N167R | -0.654 | -0.274 | -0.767 | -1.47 | -0.327
19 | N167Y | 0.252 | -1.65 | 0.966 | -0.835 | 0.312
20 | N167D | -0.864 | -1.47 | -0.924 | -1.43 | -1.32
21 | N167M | 0.857 | 0.143 | 0.415 | 0.479 | 0.467

Row | Variant | cAMP reporter score ([1]; pH 5.5) | cAMP reporter score ([1]; pH 6) | cAMP reporter score ([1]; pH 6, modulator: ogerin) | cAMP reporter score ([1]; pH 6.5, modulator: ogerin) | surface expression score [2]
22 | N167S | 0.958 | – | 0.131 | -1.06 | 0.946
23 | N167A | 0.122 | -0.569 | -0.485 | -0.695 | 0.581
24 | I163_E164insGS | 0.262 | – | -1.16 | -0.817 | 0.88
25 | V162_E164del | -1.18 | -0.388 | -1.2 | -1.42 | 2.55
26 | R170del | -1.16 | -1.23 | -1.61 | -1.76 | -0.079
27 | E164_D165insGSG | -1.69 | 0.027 | -2.16 | -1.36 | 0.067
28 | V171R | 0.589 | -0.145 | 0.462 | 2.06 | 0.814
29 | V171N | -0.337 | -1.1 | -1.75 | -1.05 | -0.156
30 | V171P | -1.14 | -0.372 | -1.9 | -1.01 | -0.123
31 | V171Q | -0.861 | -1.81 | – | -0.489 | 0.612
32 | V171G | -1.37 | -1.4 | -0.968 | -0.802 | 1.28
33 | V171C | -2.69 | -0.605 | – | -1.44 | 0.476
34 | V171A | -1.56 | -0.952 | -0.825 | -1.4 | 0.277
35 | V171S | -0.623 | -0.726 | -0.697 | -0.737 | -0.611
36 | V171F | -0.722 | – | – | -0.504 | 0.315
37 | V171M | 0.125 | -0.228 | -0.118 | -1.07 | 1.04
38 | V171W | -0.819 | -1.49 | -1.81 | -0.457 | 0.319
39 | V171Y | -0.917 | -1.45 | -1.65 | -0.791 | -0.231
40 | V171K | -0.718 | – | -0.635 | -0.737 | 0.374
41 | V171H | -0.628 | -0.56 | -0.867 | -1.26 | 0.345
42 | V171I | 0.069 | 0.251 | -0.435 | 0.384 | -0.501

Row | Variant | cAMP reporter score ([1]; pH 5.5) | cAMP reporter score ([1]; pH 6) | cAMP reporter score ([1]; pH 6, modulator: ogerin) | cAMP reporter score ([1]; pH 6.5, modulator: ogerin) | surface expression score [2]
43 | V171L | -0.002 | -0.144 | 0.529 | 0.245 | 1.05
44 | V171E | -0.404 | – | -1.06 | – | –
45 | Q168_R170del | -0.984 | -0.931 | -1.59 | -1.48 | -0.634
46 | D165_E166insG | -0.422 | -0.244 | -0.784 | -1.02 | 1.02
47 | D165_N167del | -1.52 | -0.972 | -1.98 | -1.11 | 1.4
48 | E166_N167insG | -0.582 | -0.554 | -0.935 | -1.18 | 1.25
49 | N167del | -0.921 | -0.97 | -0.569 | -0.987 | 0.209
50 | Q168del | -0.405 | -0.831 | -0.57 | -1.49 | 0.573
51 | N167_Q168insGSG | -0.855 | -0.933 | -0.866 | -1.16 | 1.74
52 | V162del | -1.65 | – | -1.02 | -1.45 | 1.39
53 | V171_C172del | -1.52 | – | -1.44 | -0.81 | -1.12
54 | I163_E164insG | -0.497 | -1.19 | 0.323 | -0.763 | 0.312
55 | E166_N167insGSG | -1.16 | 0.074 | -1.06 | -1.67 | 0.226
56 | D165Q | -0.493 | -0.177 | -0.493 | -0.696 | 1.59
57 | D165W | 0.176 | -1.8 | -0.794 | 0.083 | 0.125
58 | D165G | -0.141 | -0.358 | -0.323 | -0.766 | 2.06
59 | D165L | -0.806 | -0.661 | -0.226 | -0.868 | 0.094
60 | D165V | -0.274 | -0.284 | -0.693 | -1.08 | 0.806
61 | D165M | 0.672 | -1.1 | 0.017 | -1.05 | 1.14
62 | D165I | -0.073 | -0.181 | -0.438 | -0.856 | 1.58
63 | D165S | -1.25 | -0.465 | -0.551 | -0.987 | 1.3
